Experimental data: the supplement of paper PMC12632987
Over roughly 1,800 sequences, “median log2 fold change of GCK-ALFA target abundance (FLAG IP / Myc IP barcode read proportion)” has its median near 0.14; the lowest 2% begin near -0.84. The list shows a part of the results.

T1: TRAF2, Q12933
T1 chain: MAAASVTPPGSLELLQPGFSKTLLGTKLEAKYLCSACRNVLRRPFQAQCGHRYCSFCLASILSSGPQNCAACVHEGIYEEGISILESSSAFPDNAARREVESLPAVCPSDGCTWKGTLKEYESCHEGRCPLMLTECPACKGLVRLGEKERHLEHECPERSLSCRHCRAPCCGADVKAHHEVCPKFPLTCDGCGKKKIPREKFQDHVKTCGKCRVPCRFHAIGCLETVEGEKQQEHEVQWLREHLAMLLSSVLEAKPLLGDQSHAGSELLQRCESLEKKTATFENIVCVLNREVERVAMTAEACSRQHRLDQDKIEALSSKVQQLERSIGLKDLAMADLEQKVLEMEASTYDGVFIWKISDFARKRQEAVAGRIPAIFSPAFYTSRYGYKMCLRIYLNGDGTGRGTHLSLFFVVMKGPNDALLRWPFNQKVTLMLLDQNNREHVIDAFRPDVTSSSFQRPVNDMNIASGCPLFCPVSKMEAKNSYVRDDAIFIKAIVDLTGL

B1: traf2_out_17_178_1684 (protein)
chain: SKEEERKKISELTDQLIDLTEATGAELLARARAEGTITPEELAALEAARRAGSNRTFTALAERIVPKLASAAEAQALLDAFKARARELEKGIAEEYEKYE
B2: traf2_out_6_156_2435 (protein)
chain: MVEEIFEKTLKEIKELIKKLAEASEEKKIVYLNKIAGAVKRGLQELRDAGASLEEIKEFGERLLEEVKKLLEKSGLDESTKNLIIGSINAVIDVAIAEKA
B3: traf2_out_1_27_1005 (protein)
chain: STEEEEELLREANRKIGRATPEERIEIIEEAVREALERGLESPVHIAVVLILSLGEREERERAIEAVERVLREGGLSEEEIELMRRRVESGWARLDRLLA
B4: traf2_out_11_169_779 (protein)
chain: EEAEKNRKINDFALELNDKAKEKLKEEALKLAKEAGLDEEEIKKIFEENKNKSLSAVAAALIKYFESKGKEEEAAKVLEKYEELKDEINKKSSEFIKSLE
B5: traf2_out_20_3_2120 (protein)
chain: SELEEELEEELEEALKLLKKAAELSDPETAKRLEELIERLKASRELSPSDRLVVVSEVRREVLELAEEAARRGDEELAKILEEAADALNEAAGLLLKIAE
B6: traf2_out_18_167_1891 (protein)
chain: EEELRKELEEASDRLVELSDIRRAAREILEALERDPAEARALLAAALAAHPDSAVLKALAEVAATGDPAALRAALEAAIAALQKEANEAYKKMEELRKKL
B7: traf2_out_11_104_648 (protein)
chain: LSREQAREFNDFAMEQRDQALAIGKAVAAELKAAGETEQAAKLDAAINDPGTGISTIKNLLEELKPTLSPEMQKVADAAIAKLEALQKAVSQKLNELEAK
B8: traf2_out_18_117_1769 (protein)
chain: SARQEVIERLEALAEEVGAAASRLGKAVLENWDRLTPEERSAAMDVLADLSEVRREALLLIHEIREEGLPLEEAEKRAEELEKRAEEALAAADARLAAIA
B9: traf2_out_1_27_1012 (protein)
chain: SDEELTALIKEADRRIAEVDLERAKEIVKEAIRRAAELGEGDAVVLARTLVASELDEERAEAITEAALEAFRELGWPEEKIKELEEIFKSIIERTKKVLA
B10: traf2_out_5_63_2341 (protein)
chain: SEREELTALARRADRLVREMLEAAKAGDEEEVERLLEEAVADPELARLVLGILKAEERAYELSGDKEEEAKIAKELRERLEARLAARAAAEAAAAAAALA
B11: traf2_out_18_167_1885 (protein)
chain: SSELQKELEKASDELVRLSEIRRALKLALQALEKSREEALALIREKVKEFPDSEILKELLEVAETKSAEEVRAFMEEKIEELQKKANETYKKLEKLRKEL
B12: traf2_out_13_95_1079 (protein)
chain: SKEANEKIMEIANEMLEKTEEVLKELAKKVADNPEMKAAVEKALHLARTQGINAAIHLLEELAKANPEYKELLNAAIEKLKEIKREAGRKVAEILKEEEE
B13: traf2_out_14_17_1296 (protein)
chain: DILKKLEKIEKEAEELLKKYPELKLELGQLARKAESAKVLAEMYEEDPSYKPELIQALKNLEKLAKEVAEKAKPISKEAVKKLEKMAKEAKEIKKKVEAE
B14: traf2_out_17_162_1629 (protein)
chain: SPLEEREAELEKRLEEIEKKRKELEEKAKRIKELSKEELTDLLVEASEARREARELAEEIERLREEHDDPRLEELLKRAKELAEKFQRIANIFYKELEKK
B15: traf2_out_13_95_1167 (protein)
chain: EEEKTKKEREIASEAFDKREAIATDFAAKVKALIDDPAAAALMDEVVRNMNIYTLEHAAKQLQAAYPEKAAEIQALADEAIAKMKEIDKETTKKLNEIEK
B16: traf2_out_1_27_984 (protein)
chain: SDEEFQALLREADREMATLSLEEKLALAREVLRRAHEMGPEDLPLAAVHLAISTKTDEEFEALLEAIREELERLGVSPEEIERILKQMETAYNLTKKALA
B17: traf2_out_11_169_824 (protein)
chain: AEAERNRKINDKALELNDKAKEKLKEFALELAKKAGLDVEEVKAIFEKHKGASLSAIAAALIEYFRSKGKEEEAEAVLKKYEELKDEINKEMAKFLKELE
B18: traf2_out_6_156_2433 (protein)
chain: SKEEILKEAKEELSKLIKKLAAAPEEKKIKYISEIAGTFYRALQRLRDAGASLEEIKEAAEELIKHAEEEAKKAGLDEDTINLLLSSLNAVAIDALASAA
B19: traf2_out_11_104_634 (protein)
chain: LTREQARRLNDFAMAKRDEAAAVAAATAARLRELGETEAAARVEAALAHSGAGISTFRNLLEDLRPELSPEAAAVADAAIARLRALQAEVSAKLNELEAE

Target: T1, TRAF2, Q12933
Assay: median log2 fold change of GCK-ALFA target abundance (FLAG IP / Myc IP barcode read proportion) (log2 ratio); each designed protein is fused to an ALFA-tag nanobody in HEK293 cells to bring the named protein to FLAG-tagged glucokinase (GCK); Myc marks an untargeted standard; higher = target protein stabilised (more abundant)
Settings: target protein: 3xFLAG-MCP-GCK-ALFA reporter; HEK293 landing pad (RPLP)
Outline: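 The readout is target abundance, the per-binder median log2 ratio of FLAG to Myc barcode read proportions. It came from HEK293 landing-pad cells carrying a recombined ALFA-nanobody-fused binder library, induced with 2 μg mL^−1 doxycycline and transfected with a plasmid for a FLAG-tagged target and a Myc-tagged standard. After 48 h, lysates were immunoprecipitated with anti-FLAG and anti-Myc, and circular RNA barcodes were reverse transcribed, amplified and sequenced. Each barcode needed a proportion of at least 10^−7 in both replicates and each binder at least 3 barcodes per replicate, a pseudocount of 10^−6 was added, and the replicates were pooled.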

Question: How did the “median log2 fold change” value turn out when B1 was run?
Answer: Its value is 0.341.

Question: B2 was tested. Which “median log2 fold change” value did it give?
Answer: The value was 0.167.

Question: How did the “median log2 fold change” value turn out when B3 was run?
Answer: The value was 0.184.

Question: With B4 as the binder, how does the “median log2 fold change” value read?
Answer: Its value is 0.368.

Question: With B5 as the binder, how does the “median log2 fold change” value read?
Answer: The value was 0.341.

Question: B6 was tested. Which “median log2 fold change” value did it give?
Answer: Its value is 0.264.

Question: Which “median log2 fold change” value does the source give for B7 here?
Answer: Its value is 0.358.

Question: B8 was tested. Which “median log2 fold change” value did it give?
Answer: Its value is 0.14.

Question: How did the “median log2 fold change” value turn out when B9 was run?
Answer: The value was 0.221.

Question: With B10 as the binder, how does the “median log2 fold change” value read?
Answer: The value was 0.56.

Question: For B11, which “median log2 fold change” value is on record?
Answer: Its value is 0.385.

Question: For B12, which “median log2 fold change” value is on record?
Answer: The value was -0.165.

Question: B13 was tested. Which “median log2 fold change” value did it give?
Answer: Its value is 0.323.

Question: How did the “median log2 fold change” value turn out when B14 was run?
Answer: The value was 0.153.

Question: B15 was tested. Which “median log2 fold change” value did it give?
Answer: Its value is 0.302.

Question: How did the “median log2 fold change” value turn out when B16 was run?
Answer: Its value is 0.2.

Question: For B17, which “median log2 fold change” value is on record?
Answer: Its value is 0.0712.

Question: B18 was tested. Which “median log2 fold change” value did it give?
Answer: Its value is 0.164.

Question: B19 was tested. Which “median log2 fold change” value did it give?
Answer: The value was 0.273.
